Laboratory results from the supplement of paper PMC10126150.
Values marked as one replicate rest on one cluster of the flow cell; about a third of the high ones do not repeat.

test system: ATP; experiment: switch fluorescence ratio, 500 uM ATP over buffer (Cy3 cluster intensity, sum of 5 cycles each) (fold (ratio)); higher = stronger signal-on switching upon ATP binding; sequences stand for … in TCGTCGGCAGCGTCAGATGTGTATAAGAGACAGTTTTTTTTTTTTTTTTTTTTTTTTT…TC; settings: aptamer strand: ATP DNA aptamer (quencher-CACCTGGGGGAGTATTGCGGAGGAAGG + anchor), 100 nM annealed; ATP concentration: 500 uM; one replicate
Summary of the method: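 After annealing to 100 nM quencher-labelled ATP aptamer, Cy3-labelled switching-strand clusters on a modified Illumina MiSeq flow-cell were imaged in selection buffer. A second image followed after 15 min with 500 uM ATP at 22 °C, and five such buffer/ATP cycles were done, each separated by NaOH stripping and re-annealing. The fluorescence ratio, averaged per switch-domain sequence, is summed target-cycle over summed buffer-cycle Cy3 intensity per cluster, with clusters outside 100-1000 RFU excluded.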
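Note: ATP exposure 15 min at 22 °C before imaging.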

Q: How did the switch fluorescence ratio turn out when CTGTTTGCGT was run?
A: 1.06

Q: For CTTAAATACC, which switch fluorescence ratio is on record?
A: 1.07

Q: How did the switch fluorescence ratio turn out when CTTAACGGGG was run?
A: 1.04

Q: For CTTAACTAGG, which switch fluorescence ratio is on record?
A: 1.06

Q: With CTTAAGCTTT as the sequence, how does the switch fluorescence ratio read?
A: 1.04

Q: Which switch fluorescence ratio does the source give for CTTAATAAAG here?
A: 0.969

Q: With CTTAATCATG as the sequence, how does the switch fluorescence ratio read?
A: 0.986

Q: With CTTAATCGCC as the sequence, how does the switch fluorescence ratio read?
A: 1.01

Q: CTTAATGGT was tested. Which switch fluorescence ratio did it give?
A: 1.03

Q: How did the switch fluorescence ratio turn out when CTTAATTA was run?
A: 0.968

Q: How did the switch fluorescence ratio turn out when CTTACATGGT was run?
A: 0.981

Q: With CTTACCGTG as the sequence, how does the switch fluorescence ratio read?
A: 1.04

Q: With CTTACGCAG as the sequence, how does the switch fluorescence ratio read?
A: 1.05

Q: For CTTACGGGAC, which switch fluorescence ratio is on record?
A: 1.15

Q: For CTTACTACAT, which switch fluorescence ratio is on record?
A: 1.07

Q: With CTTACTAGAG as the sequence, how does the switch fluorescence ratio read?
A: 0.953

Q: Which switch fluorescence ratio does the source give for CTTAGAACGG here?
A: 0.996

Q: CTTAGAAT was tested. Which switch fluorescence ratio did it give?
A: 0.996

Q: For CTTAGATACT, which switch fluorescence ratio is on record?
A: 1.02

Q: How did the switch fluorescence ratio turn out when CTTAGCGATG was run?
A: 1.03

Q: Which switch fluorescence ratio does the source give for CTTAGGAGCT here?
A: 0.987

Q: With CTTAGGCAGC as the sequence, how does the switch fluorescence ratio read?
A: 1.05

Q: With CTTAGTACTT as the sequence, how does the switch fluorescence ratio read?
A: 1.04

Q: CTTAGTCAG was tested. Which switch fluorescence ratio did it give?
A: 0.95

Q: How did the switch fluorescence ratio turn out when CTTAGTGGGT was run?
A: 0.995

Q: For CTTAGTTGT, which switch fluorescence ratio is on record?
A: 1

Q: For CTTATAGTAC, which switch fluorescence ratio is on record?
A: 1.07

Q: Which switch fluorescence ratio does the source give for CTTATATAAT here?
A: 1.01

Q: Which switch fluorescence ratio does the source give for CTTATCAAGC here?
A: 1.01

Q: With CTTATCGA as the sequence, how does the switch fluorescence ratio read?
A: 0.974

Q: CTTATGCATA was tested. Which switch fluorescence ratio did it give?
A: 1.1

Q: For CTTATTTTTG, which switch fluorescence ratio is on record?
A: 0.981

Q: For CTTCAAAGTG, which switch fluorescence ratio is on record?
A: 0.954

Q: With CTTCAACTAC as the sequence, how does the switch fluorescence ratio read?
A: 1.4

Q: How did the switch fluorescence ratio turn out when CTTCAAGGGT was run?
A: 0.976

Q: CTTCATAAGC was tested. Which switch fluorescence ratio did it give?
A: 1.1

Q: For CTTCATCGGC, which switch fluorescence ratio is on record?
A: 2.32

Q: How did the switch fluorescence ratio turn out when CTTCCAGTAG was run?
A: 1.4

Q: CTTCCATTCG was tested. Which switch fluorescence ratio did it give?
A: 1.26

Q: With CTTCCTAGTG as the sequence, how does the switch fluorescence ratio read?
A: 1.13

Q: How did the switch fluorescence ratio turn out when CTTCCTCGAG was run?
A: 2.36

Q: For CTTCGAGGCT, which switch fluorescence ratio is on record?
A: 1.15

Q: With CTTCGAGTTC as the sequence, how does the switch fluorescence ratio read?
A: 1.21

Q: CTTCGAGTTG was tested. Which switch fluorescence ratio did it give?
A: 0.98

Q: How did the switch fluorescence ratio turn out when CTTCGCGGCC was run?
A: 3.15

Q: With CTTCGGCTAC as the sequence, how does the switch fluorescence ratio read?
A: 6.05

Q: Which switch fluorescence ratio does the source give for CTTCGGGTTG here?
A: 1.02

Q: How did the switch fluorescence ratio turn out when CTTCGGTAGG was run?
A: 1

Q: For CTTCGTCCCA, which switch fluorescence ratio is on record?
A: 2.43

Q: CTTCTCTGGA was tested. Which switch fluorescence ratio did it give?
A: 1.03

Q: For CTTCTGCTAT, which switch fluorescence ratio is on record?
A: 1.16

Q: With CTTCTTGCCA as the sequence, how does the switch fluorescence ratio read?
A: 1.02

Q: Which switch fluorescence ratio does the source give for CTTCTTTCGG here?
A: 1.03

Q: CTTGAAAG was tested. Which switch fluorescence ratio did it give?
A: 0.978

Q: How did the switch fluorescence ratio turn out when CTTGAACGGG was run?
A: 0.996

Q: For CTTGAATATT, which switch fluorescence ratio is on record?
A: 1.04

Q: CTTGACATTA was tested. Which switch fluorescence ratio did it give?
A: 1.03

Q: CTTGAGGCGA was tested. Which switch fluorescence ratio did it give?
A: 0.967

Q: With CTTGATGCCC as the sequence, how does the switch fluorescence ratio read?
A: 0.96

Q: How did the switch fluorescence ratio turn out when CTTGCATCTA was run?
A: 1

Q: How did the switch fluorescence ratio turn out when CTTGCCGCGG was run?
A: 1

Q: Which switch fluorescence ratio does the source give for CTTGCGC here?
A: 1.02

Q: For CTTGCTGATA, which switch fluorescence ratio is on record?
A: 1.07

Q: How did the switch fluorescence ratio turn out when CTTGGACCT was run?
A: 1.31

Q: For CTTGGACGCT, which switch fluorescence ratio is on record?
A: 1.03

Q: For CTTGGATCTT, which switch fluorescence ratio is on record?
A: 0.98

Q: How did the switch fluorescence ratio turn out when CTTGGGGACC was run?
A: 1

Q: For CTTGGGTGT, which switch fluorescence ratio is on record?
A: 1.05

Q: Which switch fluorescence ratio does the source give for CTTGGTGAGA here?
A: 0.997

Q: For CTTGGTGGCA, which switch fluorescence ratio is on record?
A: 1.01

Q: For CTTGTAAAGC, which switch fluorescence ratio is on record?
A: 1.06

Q: Which switch fluorescence ratio does the source give for CTTGTCATGT here?
A: 0.994

Q: For CTTGTCTCGC, which switch fluorescence ratio is on record?
A: 1.03

Q: How did the switch fluorescence ratio turn out when CTTGTGTTTG was run?
A: 1.04

Q: Which switch fluorescence ratio does the source give for CTTGTTAACT here?
A: 0.981

Q: Which switch fluorescence ratio does the source give for CTTGTTGCTC here?
A: 1.02

Q: For CTTGTTGTCA, which switch fluorescence ratio is on record?
A: 0.973

Q: CTTTAAACCG was tested. Which switch fluorescence ratio did it give?
A: 1.02

Q: With CTTTAAGAGC as the sequence, how does the switch fluorescence ratio read?
A: 1.13

Q: Which switch fluorescence ratio does the source give for CTTTAAGTT here?
A: 1.02

Q: Which switch fluorescence ratio does the source give for CTTTAATGGA here?
A: 0.969

Q: With CTTTACTGAA as the sequence, how does the switch fluorescence ratio read?
A: 1

Q: With CTTTAGGCTG as the sequence, how does the switch fluorescence ratio read?
A: 0.947

Q: How did the switch fluorescence ratio turn out when CTTTAGGTCA was run?
A: 0.981

Q: CTTTCAGGTT was tested. Which switch fluorescence ratio did it give?
A: 1.05

Q: CTTTCCACAT was tested. Which switch fluorescence ratio did it give?
A: 1.03

Q: Which switch fluorescence ratio does the source give for CTTTCCGCGG here?
A: 1.34

Q: With CTTTCGCCCC as the sequence, how does the switch fluorescence ratio read?
A: 1.45

Q: For CTTTCGGATT, which switch fluorescence ratio is on record?
A: 0.98

Q: CTTTCTTGGC was tested. Which switch fluorescence ratio did it give?
A: 1.04

Q: With CTTTGAGGTT as the sequence, how does the switch fluorescence ratio read?
A: 1.35

Q: Which switch fluorescence ratio does the source give for CTTTGAGTG here?
A: 0.976

Q: Which switch fluorescence ratio does the source give for CTTTGCACAG here?
A: 1.06

Q: How did the switch fluorescence ratio turn out when CTTTGCTACG was run?
A: 1.01

Q: How did the switch fluorescence ratio turn out when CTTTGGAGTT was run?
A: 1.03

Q: For CTTTGGATCC, which switch fluorescence ratio is on record?
A: 1.02

Q: CTTTGGCTAG was tested. Which switch fluorescence ratio did it give?
A: 1.01

Q: CTTTGGTCTA was tested. Which switch fluorescence ratio did it give?
A: 0.971

Q: Which switch fluorescence ratio does the source give for CTTTGGTTAT here?
A: 1.03

Q: CTTTGTGCG was tested. Which switch fluorescence ratio did it give?
A: 0.989

Q: With CTTTTAACT as the sequence, how does the switch fluorescence ratio read?
A: 0.995
